According to the antibiotic and cytotoxicity screens of Wong et al. (2023):
The other results are listed elsewhere or left out.

tested on: S. aureus RN4220; experiment: growth inhibition call (relative growth <= 0.2); settings: 50 µM

Growth inhibition call, active:
CS(=O)(=O)O.CSc1ccc2c(c1)C(N1CCN(C)CC1)Cc1ccccc1S2 (stereo not given)

Growth inhibition call, inactive:
CO[C@H]1C[C@@H]2CC[C@@H](C)[C@@](O)(O2)C(=O)C(=O)N2CCCC[C@H]2C(=O)O[C@H]([C@H](C)C[C@@H]2CC[C@@H](OC(=O)C(C)(CO)CO)[C@H](OC)C2)CC(=O)[C@H](C)/C=C(\C)[C@@H](O)[C@@H](OC)C(=O)[C@H](C)C[C@H](C)/C=C/C=C/C=C/1C, CC(=O)NCCCC[C@@H]1NC(=O)[C@H]2C[C@@H](C(=O)NCCCC[N+](C)(C)C)[C@@H](c3ccc(O)cc3)N2C1=O, C[C@@H]1CN([C@@H](C)CO)C(=O)c2cc(NS(=O)(=O)c3cn(C)cn3)ccc2O[C@@H]1CN(C)C(=O)NC1CCCCC1, CC[C@@H](C)NCc1ccsc1, Cc1ccc(S(=O)(=O)N(C)C[C@@H]2Oc3c(NS(=O)(=O)c4cn(C)cn4)cccc3C(=O)N([C@@H](C)CO)C[C@@H]2C)cc1, O=CN1CCN(C(=O)c2ccccc2)CC1, CCOc1ccccc1OCCNC(C)Cc1ccc(OC)c(S(N)(=O)=O)c1.Cl (stereo not given), COc1ccc(NC(=O)Nc2ccc3c(c2)CC(=O)N([C@@H](C)CO)C[C@@H](C)[C@@H](CN(C)Cc2ccc(-c4ccccc4)cc2)O3)cc1, COc1ccc(CN(C)C[C@@H]2OCCCC[C@H](C)Oc3ccc(NS(=O)(=O)c4ccc(OC)cc4)cc3C(=O)N([C@H](C)CO)C[C@H]2C)cc1, COc1ccc(-c2cnc3c(c2)C(=O)N([C@H](C)CO)C[C@H](C)[C@@H](CN(C)C(=O)Cc2ccncc2)O3)cc1, CC(C)N1C[C@@H](C)[C@H](CN(C)Cc2ccc(OCCCC(F)(F)C(F)(F)C(F)(F)C(F)(F)C(F)(F)C(F)(F)C(F)(F)C(F)(F)F)cc2)Oc2c(NC(=O)c3ccncc3)cccc2C1=O, O=C(O)[C@H]1CCCN1C(=O)c1cccnc1, O=c1cc(-c2ccc(O)cc2)oc2cc(O)ccc12, COc1cccc(C#Cc2ccc([C@@H]3[C@@H](CO)N4C(=O)CN(S(=O)(=O)c5ccccc5C)C[C@@H]34)cc2)c1, Cc1ccc(S(=O)(=O)Nc2cccc3c2O[C@@H](CN(C)Cc2ccc(-c4ccccc4)cc2)[C@H](C)CN([C@@H](C)CO)C3=O)cc1, C[C@@H]1CCCCO[C@H](CN(C)S(=O)(=O)c2ccc(Cl)cc2)[C@H](C)CN([C@@H](C)CO)C(=O)c2cc(NS(=O)(=O)c3cccs3)ccc2O1, CCCCCCCCCCCCCCCCOCCCOP(=O)(O)CO[C@H](CO)Cn1ccc(N)nc1=O, C[C@@H]1CCCCO[C@H](CN(C)S(=O)(=O)c2cn(C)cn2)[C@@H](C)CN([C@@H](C)CO)C(=O)c2cc(NC(=O)Nc3ccc(C(F)(F)F)cc3)ccc2O1, C[C@@H]1CCCCO[C@@H](CN(C)Cc2ccc3c(c2)OCO3)[C@@H](C)CN([C@@H](C)CO)C(=O)c2cc(NC(=O)Nc3cccc4ccccc34)ccc2O1, C[C@H](CO)N1C[C@H](C)[C@@H](CN(C)C(=O)NC2CCCCC2)Oc2ccc(NC(=O)CCN3CCOCC3)cc2CC1=O, C[C@H]1CN([C@@H](C)CO)C(=O)c2cc(NC(=O)NC3CCCCC3)ccc2O[C@@H]1CN(C)C(=O)Nc1ccc(C(F)(F)F)cc1, C[C@@H]1CCCCO[C@@H](CN(C)C(=O)NC2CCCCC2)[C@H](C)CN([C@@H](C)CO)C(=O)c2cc(NC(=O)C3CCCCC3)ccc2O1, CC(C)NC(=O)N(C)C[C@@H]1Oc2cc(C#Cc3ccccn3)ccc2S(=O)(=O)N([C@H](C)CO)C[C@@H]1C, C=C(c1ccc(C(=O)O)cc1)c1cc2c(cc1C)C(C)(C)CCC2(C)C, CC(C)=CCc1c2c(c3occ(-c4ccc(O)cc4)c(=O)c3c1O)C=CC(C)(C)O2, COc1ccc(S(=O)(=O)N(C)C[C@@H]2OCCCC[C@@H](C)Oc3ccc(NC(=O)C4CCCCC4)cc3C(=O)N([C@@H](C)CO)C[C@H]2C)cc1, CNC[C@H]1OCCCC[C@H](C)Oc2ccc(NC(=O)Nc3cccc4ccccc34)cc2C(=O)N([C@@H](C)CO)C[C@@H]1C, CC(=O)N(C)C[C@H]1Oc2ncc(C#C[C@@H](C)O)cc2C(=O)N([C@H](C)CO)C[C@@H]1C, COc1ccc(S(=O)(=O)N(C)C[C@H]2Oc3c(NS(=O)(=O)c4ccc(C)cc4)cccc3C(=O)N([C@@H](C)CO)C[C@@H]2C)cc1, Cc1ccc(S(=O)(=O)N(C)C[C@@H]2OCCCC[C@@H](C)Oc3ccc(NS(=O)(=O)c4ccc(F)cc4)cc3C(=O)N([C@H](C)CO)C[C@H]2C)cc1, C[C@@H]1CN([C@@H](C)CO)C(=O)CCCn2cc(nn2)CO[C@H]1CN(C)S(=O)(=O)c1ccc(Oc2ccccc2)cc1, COCC(=O)Nc1ccc2c(c1)OC[C@@H](C)N(C(=O)Nc1ccccc1F)C[C@@H](C)[C@H](OC)CN(C)C2=O, COc1ccc(S(=O)(=O)N(C)C[C@H]2OCCCC[C@@H](C)Oc3ccc(NS(C)(=O)=O)cc3C(=O)N([C@H](C)CO)C[C@H]2C)cc1, COCCNC(=O)Cn1cnc2c1c(=O)n(C)c(=O)n2C, C[C@H]1CN([C@@H](C)CO)C(=O)c2cccc(NC(=O)c3ccncc3)c2O[C@H]1CN(C)Cc1ccc2c(c1)OCO2, CC(C)CC#Cc1ccc2c(c1)O[C@@H](CN(C)C(=O)C1CCOCC1)[C@@H](C)CN([C@H](C)CO)S2(=O)=O, C[C@H](CO)N1C[C@H](C)[C@H](CN(C)Cc2ccc3c(c2)OCO3)OCCCC[C@H](C)Oc2ccc(NC(=O)Nc3ccc(F)cc3)cc2C1=O, N[C@@H]1CC[C@H](CCn2cc(-c3ccccn3)nn2)O[C@H]1CO, CC(C)NC(=O)Nc1ccc2c(c1)C(=O)N([C@H](C)CO)C[C@H](C)[C@H](CN(C)C(=O)NC1CCCCC1)O2
